Laboratory results reported in publication PMC2920317, “CHL1 Is a Selective Organizer of the Presynaptic Machinery Chaperoning the SNARE Complex” (PLoS ONE, 2010).
These are yes or no findings as the source states them, for the method shown. For some assays here: In cells and extracts the contact can be indirect. Some binding calls cover weakened binding; strength is not graded here. Each block holds one molecule with its values, some of them ahead of it.

By UniProt entry, the sequences of proteins in these tests, tags left out. Residues count along the entry.
UniProt P70232, residues 26-1209: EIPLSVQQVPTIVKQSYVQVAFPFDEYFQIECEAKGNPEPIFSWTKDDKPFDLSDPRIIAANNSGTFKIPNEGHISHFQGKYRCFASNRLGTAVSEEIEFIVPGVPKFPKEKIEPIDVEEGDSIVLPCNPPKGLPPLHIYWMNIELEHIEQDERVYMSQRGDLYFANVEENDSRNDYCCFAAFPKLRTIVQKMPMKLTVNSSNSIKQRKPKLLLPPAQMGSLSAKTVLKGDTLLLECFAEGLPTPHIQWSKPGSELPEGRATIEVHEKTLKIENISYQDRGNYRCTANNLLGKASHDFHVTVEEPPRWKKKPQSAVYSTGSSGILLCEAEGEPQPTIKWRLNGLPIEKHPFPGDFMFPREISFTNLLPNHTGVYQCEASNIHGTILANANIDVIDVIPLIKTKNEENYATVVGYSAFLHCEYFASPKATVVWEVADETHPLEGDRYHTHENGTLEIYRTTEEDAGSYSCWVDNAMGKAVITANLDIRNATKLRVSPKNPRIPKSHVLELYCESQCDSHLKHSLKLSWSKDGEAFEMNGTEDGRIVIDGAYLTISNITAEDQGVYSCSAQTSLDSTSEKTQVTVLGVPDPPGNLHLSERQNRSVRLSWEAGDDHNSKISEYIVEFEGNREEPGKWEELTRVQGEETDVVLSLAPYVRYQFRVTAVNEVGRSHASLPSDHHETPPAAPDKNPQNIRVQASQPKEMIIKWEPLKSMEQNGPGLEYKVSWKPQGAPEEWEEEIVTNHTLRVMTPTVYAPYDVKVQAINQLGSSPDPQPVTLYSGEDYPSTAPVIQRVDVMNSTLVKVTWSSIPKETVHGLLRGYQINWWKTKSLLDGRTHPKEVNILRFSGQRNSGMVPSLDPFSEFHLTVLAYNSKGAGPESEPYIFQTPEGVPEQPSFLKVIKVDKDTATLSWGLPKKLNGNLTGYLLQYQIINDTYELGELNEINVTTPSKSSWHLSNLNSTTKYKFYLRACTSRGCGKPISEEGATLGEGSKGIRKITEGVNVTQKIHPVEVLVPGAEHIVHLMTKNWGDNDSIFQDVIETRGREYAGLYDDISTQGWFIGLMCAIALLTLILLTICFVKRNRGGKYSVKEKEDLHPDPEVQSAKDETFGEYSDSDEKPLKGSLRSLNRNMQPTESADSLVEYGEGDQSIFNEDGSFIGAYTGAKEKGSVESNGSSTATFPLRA
UniProt P63017: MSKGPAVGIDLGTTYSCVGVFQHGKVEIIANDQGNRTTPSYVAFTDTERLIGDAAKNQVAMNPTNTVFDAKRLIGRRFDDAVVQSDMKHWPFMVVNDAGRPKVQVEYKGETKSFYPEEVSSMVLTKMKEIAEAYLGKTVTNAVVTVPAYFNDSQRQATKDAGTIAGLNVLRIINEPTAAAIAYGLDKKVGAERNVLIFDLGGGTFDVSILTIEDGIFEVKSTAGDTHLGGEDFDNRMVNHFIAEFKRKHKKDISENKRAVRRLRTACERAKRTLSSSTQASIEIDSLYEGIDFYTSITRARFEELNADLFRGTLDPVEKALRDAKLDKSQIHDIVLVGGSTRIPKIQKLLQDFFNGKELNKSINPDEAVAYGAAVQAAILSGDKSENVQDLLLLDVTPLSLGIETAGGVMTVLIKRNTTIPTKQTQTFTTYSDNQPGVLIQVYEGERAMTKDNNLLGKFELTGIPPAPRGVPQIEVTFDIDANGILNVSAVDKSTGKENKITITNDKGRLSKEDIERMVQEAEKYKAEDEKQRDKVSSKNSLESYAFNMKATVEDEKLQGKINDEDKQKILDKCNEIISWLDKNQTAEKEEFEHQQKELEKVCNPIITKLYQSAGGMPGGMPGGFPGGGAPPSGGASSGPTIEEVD
UniProt P63044: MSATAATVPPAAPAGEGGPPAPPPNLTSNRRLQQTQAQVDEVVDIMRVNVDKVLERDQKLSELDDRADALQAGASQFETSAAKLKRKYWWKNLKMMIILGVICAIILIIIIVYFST
UniProt P60879: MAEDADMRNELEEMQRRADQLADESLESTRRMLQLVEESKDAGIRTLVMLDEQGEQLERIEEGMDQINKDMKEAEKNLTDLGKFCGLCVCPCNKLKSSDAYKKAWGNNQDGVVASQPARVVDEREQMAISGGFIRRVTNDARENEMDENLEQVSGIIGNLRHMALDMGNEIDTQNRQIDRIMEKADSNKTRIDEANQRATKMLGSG
UniProt Q62277: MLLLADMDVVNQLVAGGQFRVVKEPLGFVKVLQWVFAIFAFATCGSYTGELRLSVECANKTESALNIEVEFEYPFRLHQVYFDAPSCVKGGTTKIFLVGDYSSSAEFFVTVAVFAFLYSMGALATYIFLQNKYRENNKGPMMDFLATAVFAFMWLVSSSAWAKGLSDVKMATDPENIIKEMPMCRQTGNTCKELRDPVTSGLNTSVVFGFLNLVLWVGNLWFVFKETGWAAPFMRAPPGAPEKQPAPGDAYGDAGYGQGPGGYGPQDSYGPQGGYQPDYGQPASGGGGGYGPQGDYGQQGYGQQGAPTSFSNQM

Columns and labels:
[1] = target: syntaxin1B (mouse (endogenous in brain)) (UniProt P61264); experiment: pull-down; syntaxin1B immunoprecipitated (immunopurified) from synaptosomes, on beads; native recombinant SNAP25 and VAMP2 added together; Western blot; both purified
[2] = target: syntaxin1B (mouse (endogenous in brain)) (UniProt P61264); experiment: co-IP; syntaxin1B immunoprecipitated from CHL1+/+ and CHL1-/- mouse synaptosomes treated with 4 mM or 90 mM K+ (90 s); Western blot
[3] = target: Close homologue of L1 (CHL1) (mouse (endogenous in brain)) (UniProt P70232); experiment: co-IP; CHL1 immunoprecipitated from mouse brain synaptosomes, mock-stimulated (4 mM K+) or stimulated one or two times with 47 mM K+ for 90 s with or without 5 min recovery in 4 mM K+; Western blot
[4] = target: Close homologue of L1 (CHL1) (mouse (endogenous in brain)) (UniProt P70232); experiment: co-IP; CHL1 immunoprecipitated from adult mouse brain lysates (50 mM Tris-HCl pH 7.5, 150 mM NaCl, 1% Nonidet P-40, 1 mM EDTA); protein A/G-agarose; Western blot; mock IP with non-specific Ig as control
[5] = target: Close homologue of L1 (CHL1) (mouse (endogenous in brain)) (UniProt P70232); experiment: condition: only mock-stimulated synaptosomes (4 mM K+), without stimulation by 47 mM K+; co-IP; CHL1 immunoprecipitated from mock-stimulated (4 mM K+) mouse brain synaptosomes; Western blot, also at high exposure
[6] = target: 70 kDa heat shock cognate protein (Hsc70) (mouse (endogenous in brain)) (UniProt P63017); experiment: native gel or EMSA; synaptic vesicles and synaptic plasma membranes of mouse brain lysed in 1% Triton X-100 (removed with Bio-Beads), 2-mercaptoethanol added; 6% PAGE under non-denaturing conditions; Western blot; overlapping bands at or above the summed molecular weight taken as presumed complex
[7] = target: Close homologue of L1 (CHL1) (mouse (endogenous in brain)) (UniProt P70232); experiment: as above
[8] = target: Close homologue of L1 (CHL1) (mouse (endogenous in brain)) (UniProt P70232); experiment: co-IP; CHL1 immunoprecipitated from adult mouse brain lysates (50 mM Tris-HCl pH 7.5, 150 mM NaCl, 1% Nonidet P-40, 1 mM EDTA); protein A/G-agarose; Western blot; mock IP with non-specific Ig as control; remark: listed apart in the source

Molecule: recombinant VAMP2 (from UniProt P63044 1-116)
binding [1]: binds

Molecule: VAMP2 (from UniProt P63044 1-116)
binding [2]: binds | binding [3]: binds

Molecule: recombinant SNAP25 (from UniProt P60879 1-206)
binding [1]: binds

B1: syntaxin1B (natural protein, mouse (endogenous in brain), UniProt P61264 1-288, looked up)
chain: MKDRTQELRSAKDSDDEEEVVHVDRDHFMDEFFEQVEEIRGCIEKLSEDVEQVKKQHSAILAAPNPDEKTKQELEDLTADIKKTANKVRSKLKAIEQSIEQEEGLNRSSADLRIRKTQHSTLSRKFVEVMTEYNATQSKYRDRCKDRIQRQLEITGRTTTNEELEDMLESGKLAIFTDDIKMDSQMTKQALNEIETRHNEIIKLETSIRELHDMFVDMAMLVESQGEMIDRIEYNVEHSVDYVERAVSDTKKAVKYQSKARRKKIMIIICCVVLGVVLASSIGGTLGL
notes: syntaxin1B, SNARE complex protein, endogenous in adult mouse brain; also called synatxin1B; source: endogenous, mouse brain lysate and synaptosomes; immunoprecipitated from synaptosomes and held on beads
binding [3]: binds | binding [5]: no binding

B3: cysteine string protein (CSP), αCSP isoform (protein, UniProt P60904 1-198)
chain: MADQRQRSLSTSGESLYHVLGLDKNATSDDIKKSYRKLALKYHPDKNPDNPEAADKFKEINNAHAILTDATKRNIYDKYGSLGLYVAEQFGEENVNTYFVLSSWWAKALFVVCGLLTCCYCCCCLCCCFNCCCGKCKPKAPEGEETEFYVSPEDLEAQLQSDEREATDTPIVIQPASATETTQLTADSHPSYHTDGFN
binding [7]: binds

The next lines start with the values.

binding [4]: no binding
Molecule: synaptophysin (from UniProt Q62277 1-314)

binding [2]: binds | binding [3]: binds | binding [5]: no binding
Molecule: SNAP25 (from UniProt P60879 1-206)

binding [6]: binds | binding [7]: binds
B2: small glutamine-rich tetratricopeptide repeat-containing protein, ubiquitous isoform (αSGT) (natural protein, mouse (endogenous in brain), UniProt Q8BJU0 1-315, looked up)
chain: MDNRKRLAYAIIQFLHGQLRHGGLSCDAQESLEVAIQCLETAFGVTLEDSDLALPQTLPEIFEAATSSKQEMPQDPRAPDRTPPSEEDSAEAERLKTEGNEQMKLENFEAAVHLYGKAIELNPANAVYFCNRAAAYSKLGNYVGAVQDCERAIGIDPGYSKAYGRMGLALSSLNKHAEAVAYYKKALELDPDNDTYKSNLKIAELKLREAPSPTGGVGSLDIAGLLNNPHFITMASSLMNSPQLQQLMSGMISGGHNPLGTPGSSPQQSDLASLIQAGQQFAQQMQQQNPEFVEQIRSQVVRSRTPSASHEEQQE
notes: αSGT, endogenous in adult mouse brain; also called alphaSGT; source: endogenous, mouse brain lysate; synaptic vesicles and synaptic plasma membranes

binding [8]: no binding
B4: small glutamine-rich tetratricopeptide repeat-containing protein, brain specific isoform (βSGT) (protein, UniProt Q8VD33 1-304)
chain: MSSVKPLVYAVIRFLREQSQMDAYTSDEQESLEVAIQCLETVFKISPEDTHLAVSQPLTEMFTNSVCKNDIRPLSNSVPEDVGKADQLKDEGNNHMKEENYAAAVDCYTQAIELDPNNAVYYCNRAAAQSKLSHYTDAIKDCEKAIAIDSKYSKAYGRMGLALTAMNKFEEAVTSYQKALDLDPENDSYKSNLKIAEQKLREVSSPTGTGLSFDMASLINNPAFITMAASLMQNPQVQQLMSGMMTNAIGGPAAGVGGLTDLSSLIQAGQQFAQQIQQQNPELIEQLRNHIRSRSFSSSADEHS
